# Laboratory results: the supplement of paper PMC3334620
# The full ranking holds about 33,000 sequences; the median of “E-score (-0.5 to 0.5)” is about -0.016, and the highest 2% start at about 0.31. The list shows a part of the results.
# Biological target: Cst6 (UniProt P40535)
# Assay: PBM E-score (8-mer binding enrichment) (E-score (-0.5 to 0.5)); higher = stronger / more preferred TF binding; most listed sequences are background and not binding sites
# Settings: protein concentration: 200 nM; construct: GST-DNA-binding domain
# In short: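 Each ungapped eight-base word and its reverse complement, pooled, received an E-score from the Universal PBM Analysis Suite. Underlying scans, normalised with masliner, recorded fluorescent anti-GST bound to GST-tagged yeast transcription factors. These were applied at about 100-200 nM to universal all-10-mer Agilent arrays double-stranded by primer extension.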
row,Sequence,PBM E-score
1,CGATGCAC,-0.106
2,AAATCAAT,0.199
3,CGGCCCCG,-0.138
4,AGGGTTAC,-0.0169
5,AGAACGGG,-0.0993
6,CTGAAAAA,-0.0734
7,CCTTATTC,-0.0876
8,ACAACGTA,0.224
9,ACACCGCC,-0.113
10,GATCACAC,-0.0313
11,AGGGTTTC,-0.232
12,CGGTTCCA,-0.153
13,GCTGTCAC,0.0464
14,CACTCTAG,-0.0706
15,CCCGGAGG,-0.327
16,ATGGTAAG,-0.138
17,GAAATTCC,-0.116
18,ACCTACAA,0.183
19,CTCGACTC,-0.113
20,GCGGACGC,0.0221
21,CCCATTGC,-0.0276
22,ACAGGTAC,-0.0446
23,TATCAGGA,0.111
24,CAAACATC,0.0453
25,AACGCGCC,0.0352

row,Sequence,PBM E-score
1,AAATAGTT,0.141
2,ATCACTGC,0.224
3,CGCCTCCA,-0.0617
4,GAACGATC,-0.0783
5,TCACTGGA,0.0607
6,CCTCCCGA,-0.29
7,CTACCCGC,-0.189
8,GTCTGTAA,0.0809
9,GGATGGAC,-0.168
10,CATTCTGA,0.105
11,ACAGTTCA,0.0816
12,CACCCTAA,0.074
13,GCGCTCAA,-0.165
14,AATCATCT,0.114
15,CCTGGTCA,-0.248
16,AGATCGTG,0.0248
17,AAGGCCCA,-0.168
18,CACGCATG,-0.0721
19,TTCTGCAA,0.138
20,ATATGCTC,0.0642
21,ATACGCAT,0.0826
22,CACGGCGG,0.245
23,CTATACGA,-0.0464
24,ACCTATCA,-0.0999
25,ACCTAGTA,-0.284

row,Sequence,PBM E-score
1,AAGATAAG,0.225
2,GGGCTGTA,-0.256
3,TACCGGTA,-0.149
4,AGACGATA,0.0849
5,AATGCGGA,0.0319
6,CTGAGTCA,0.0612
7,AACCAAGT,0.11
8,ATGTGACC,0.0452
9,ATGAGAGA,0.108
10,AAGCAGGA,-0.01
11,CCATATGG,-0.0766
12,GGCCTTAA,-0.0387
13,TCTGCCAA,-0.144
14,GGTCCCAA,-0.198
15,CGACTGGA,-0.251
16,CCCCCAGC,-0.408
17,CATACCGA,0.086
18,AGACCTGC,-0.208
19,AACCGAAA,0.142
20,AAGACTTA,0.0218
21,AGTCTGCC,-0.298
22,ACTAATCG,0.0495
23,GAGCACGA,-0.0545
24,CGCGCTAG,-0.027
25,GATGATCA,0.171

row,Sequence,PBM E-score
1,GCCATACA,0.0782
2,ATCCACAC,-0.229
3,TACTTCCA,0.0584
4,AAGTGTCG,-0.00286
5,CGTCGGTC,0.0158
6,CCCCTTGA,-0.0084
7,TAGGTTCA,-0.0454
8,AGCTAGAT,-0.0478
9,ATAGGAGA,-0.149
10,GGCCGTAA,-0.0126
11,AGAATGCA,-0.00432
12,CGGCATGC,0.0398
13,GTTAGCTA,-0.109
14,CCGGAATA,-0.181
15,GTTAAGCA,-0.0243
16,GCAGACAC,0.0507
17,ATCAAATG,0.0892
18,GTGGTTAA,0.146
19,GCGGGGAC,-0.156
20,AGGTATAA,0.0758
21,CGTCGTGC,0.139
22,AATGTAAA,0.258
23,ACTAGGGG,-0.301
24,TGCCTACA,-0.0823
25,GAACATGC,-0.095

row,Sequence,PBM E-score
1,CAATCGCC,0.0827
2,AGCGATCG,0.0232
3,ATCAGCAC,0.0767
4,AATTCAAT,0.229
5,AGTCGAAC,-0.108
6,ACGAAATC,0.195
7,GGGCGTCA,0.264
8,GCCGCCAA,-0.227
9,GATTTCAC,0.189
10,CGCAAATA,0.144
11,CCCTCACC,-0.17
12,GATAATAC,0.125
13,ATACATAT,0.337
14,AATGTAAG,0.192
15,ACGCAGGA,-0.0261
16,AAGAGGGG,-0.193
17,CCGCGTCG,0.0654
18,GCTTTAAA,-0.00551
19,GCGCGGCC,0.167
20,ACGCCCTG,-0.0252
21,CATGCGCA,0.0549
22,AATGGGCT,-0.182
23,TGGGGTAA,0.0474
24,CCGACGCA,-0.207
25,AACCGGAA,-0.205

row,Sequence,PBM E-score
1,ACCCAATA,-0.034
2,AGCGCTGC,-0.158
3,CAACACAA,0.148
4,ATAACATG,0.0453
5,GGCTCGTA,0.00132
6,GTTTACAA,0.0819
7,CTCATTAC,0.25
8,TCCGCCAA,-0.07
9,GGCATGCA,0.0998
10,ACGGCCTC,-0.0387
11,ACTTGCTG,0.0369
12,AACCCTAC,-0.229
13,ATGGACCC,-0.241
14,ATTATACG,0.263
15,CATGTGTA,0.0219
16,AGGCCAAG,-0.292
17,AGGAGCAC,-0.136
18,AACAGGGA,-0.00771
19,CGAATGCA,0.0771
20,CAGAGTGC,-0.0946
21,AGCCTCTA,-0.347
22,CCCACCCC,0.0879
23,ACATCTTG,-0.101
24,AGATATTC,0.0543
25,AATAAACG,0.157

row,Sequence,PBM E-score
1,ACAAATAC,0.206
2,ATCGGGAC,-0.126
3,CGTCTCCA,0.0599
4,AAGGGATC,-0.0719
5,CGGAGATA,0.0608
6,AGGAGCTA,-0.0935
7,AGTCCAGA,-0.125
8,ATCCCGTA,-0.00151
9,CAGCACCG,-0.101
10,CTGAAGAC,-0.13
11,CCGAGTAA,-0.0295
12,GGTCACAC,-0.0298
13,ACGACTTA,-0.124
14,GACTGCAC,-0.16
15,CCAGACAA,-0.0545
16,TACTACGA,0.155
17,TAACCCGA,-0.172
18,TCCTCTAA,-0.153
19,TAGGGTGA,0.135
20,CTACCCTA,-0.177
21,ACTCATTC,0.103
22,GTATATTA,0.261
23,CGCTATCC,-0.0161
24,AGGTCTAC,-0.216
25,TCTCCAAA,-0.032

row,Sequence,PBM E-score
1,AAAGGCTT,-0.0374
2,AATGTTGA,0.13
3,TGATAGAA,0.006
4,GATTCTTA,0.281
5,AAGTGCTG,0.00351
6,ACTCTAAG,-0.183
7,CGATTGCA,0.0317
8,ACTAGTCG,-0.164
9,CCCCTTAG,-0.377
10,AACAACCC,0.00425
11,CTGTCCTA,-0.219
12,GATTCGTA,0.0958
13,CATCGAAG,0.19
14,AATTCTGG,-0.0752
15,ATTCGTGC,0.22
16,ATCTAGTA,0.224
17,GTCCGTAA,-0.0688
18,CCGGAGAA,-0.258
19,CGTGTGAC,0.23
20,GCCATCCA,-0.118
21,ATCAGGGA,-0.0907
22,AAGTTGGC,-0.0387
23,ATGCTATG,0.212
24,GCTGTTCC,-0.281
25,GAGCTTAA,-0.185

row,Sequence,PBM E-score
1,CTTCCACC,-0.0668
2,CCGGTACG,-0.27
3,AGGAGTAA,0.0556
4,GCACTCGA,-0.254
5,CGAATAGA,-0.0237
6,CCTTGGCG,-0.241
7,ACTTATTA,0.151
8,ACCAGTTC,-0.195
9,CATAAGCG,-0.032
10,CTAGTGGA,-0.293
11,AATGCTAC,0.0664
12,CGCATTCA,0.173
13,GTCTCTTA,-0.00905
14,AAGCAACG,0.0661
15,GAACCGCA,0.113
16,AACCTAGA,-0.0807
17,ATGACTGA,0.225
18,ATTCGTCC,0.183
19,ATATACGA,0.0274
20,CGCAGCGC,0.091
21,ATAGCGAC,-0.13
22,ACATGTCT,0.0633
23,AAAGTGAG,0.146
24,AGAGGGCA,-0.155
25,GCGCCCAC,-0.0564

row,Sequence,PBM E-score
1,ACGAAACT,0.0946
2,GCTGATCA,0.0157
3,TATTGAAA,0.205
4,ATTCTTGA,0.177
5,ATTGCCCG,-0.142
6,AGCGCTGA,0.1
7,CATGGCAG,-0.0579
8,ATCAACCA,0.0394
9,CCGAGCCG,0.067
10,CCGGTTAC,0.0405
11,ATGATCAA,0.249
12,GGTCCTAC,-0.285
13,ATTTAATG,0.276
14,ATGTAGCC,-0.142
15,ACATTGGA,0.0753
16,ACGAAGCT,-0.0999
17,AGAGCCGC,0.264
18,CCGCAACA,0.113
19,CGCATCAG,0.00233
20,CCGTTCTA,0.0539
21,CGCGCCAA,0.0906
22,TGAAGGAA,-0.102
23,ACGGGTCG,0.0925
24,ATATCACC,0.297
25,CCTATGCC,-0.17

row,Sequence,PBM E-score
1,CACGGCCA,-0.114
2,TGCGGTAA,0.258
3,GGAGGGGA,-0.125
4,GCCAACAA,-0.0984
5,CCAGCAAG,-0.174
6,ACCGGTCC,-0.444
7,AGCAGACC,-0.165
8,AAGTCGTG,-0.0611
9,GACTAACA,0.109
10,CCTCTGTA,-0.122
11,GAGGTAGC,-0.346
12,ACAAAACG,0.225
13,AATAGTGT,0.275
14,CGGTCACA,0.133
15,AACCTAGG,-0.0852
16,GCCGGGAA,-0.279
17,AAACGACG,0.0881
18,CAGCATCC,-0.179
19,GATCCTGA,0.0815
20,CCGAGGGC,-0.26
21,TACCCCCA,-0.308
22,AGCCTTAC,-0.17
23,CGTGCTGA,-0.0207
24,CAAGATCC,-0.041
25,GAGAACTA,0.0835

row,Sequence,PBM E-score
1,CACCCAAG,-0.145
2,TCATAGCA,0.255
3,CCGACGAG,-0.15
4,CGGGGCAG,-0.0986
5,CTTGAATC,-0.0222
6,CTGGAGGA,-0.371
7,CACACTGA,0.0518
8,ATATAGGG,-0.0275
9,GTCGCCCA,-0.192
10,GTGATGTA,0.465
11,GGGAGACC,-0.494
12,AACCCGCC,-0.135
13,CTCACGCC,0.0261
14,GTACAGAA,-0.0544
15,GGTTAAAA,0.0477
16,CTACTACC,-0.109
17,TGCCTTAA,-0.0513
18,ACACGTAA,0.366
19,CCTAAACA,-0.07
20,ATATCCAA,0.203
21,CCGAGCGC,-0.115
22,AATTGTTC,0.294
23,TAGTCTAA,-0.17
24,TTCTCCAA,-0.0647
25,GCAAGGCC,-0.112

row,Sequence,PBM E-score
1,CGCTAACG,0.251
2,AATCGATC,-0.0562
3,GCAAGTAC,-0.0407
4,GAAAGGGC,-0.0242
5,AAGACAAG,0.0892
6,CTTGTCAC,0.0224
7,CGTGGGTA,-0.25
8,CTGAGTCC,-0.271
9,AGATGTGG,0.0193
10,AGCATGAC,0.279
11,CAGTACAG,-0.148
12,AATTAGTC,0.223
13,AATCCCCT,-0.354
14,GCCCAACA,-0.301
15,CAGGCTTC,-0.0671
16,CAGTGCGA,-0.0203
17,CCGAAGCC,-0.175
18,AGCTGATG,0.104
19,CCGGACTC,-0.171
20,CAGTAGGG,-0.22
21,ATAGTCGG,-0.21
22,GGCGCGGA,-0.0925
23,ACGTCCCC,-0.225
24,AGTGTGAC,0.253
25,ATCCTAGA,-0.134

row,Sequence,PBM E-score
1,AGGGTACG,-0.0337
2,ACAGTAGA,0.202
3,GCAGAGAA,0.0465
4,GCCGGTCC,-0.342
5,CGGCTCAC,-0.0029
6,CCGGGGAA,-0.00802
7,CGCGAGCC,-0.0599
8,AATGGAAA,0.168
9,AAGGGCAT,-0.00446
10,AGTCCGAT,-0.121
11,AATCACAA,0.0779
12,GTCTCAAC,-0.143
13,ACTGGTCA,-0.0101
14,GATTATAA,0.185
15,AGCGGTAC,-0.0127
16,AAAGGATA,0.161
17,ATTGAGAG,0.0205
18,ACGCGACT,-0.126
19,GCGTGGTA,-0.03
